# In PubChem BioAssay AID1508624 (National Center for Advancing Translational Sciences (NCATS), 2021):
# The campaign covered roughly 48,000 compounds. About 120 (0.25%) were called active. Inconclusive results (about 4%) are left out. Calls follow the shape of the dose curve; as a rule, active = well fitted activation curve with a large enough effect; inconclusive = small, poorly fitted or top-dose-only effect, or another doubt; inactive = no such curve, though single readings can be large or run the other way. The list shows a part of the results.
# Assay: Primary qHTS for Identification of Small Molecule Activators of Huntingtin-Antisense Promoter Activity; also: nearly all actives have a fitted effect of over 55% in size
# Settings: HEK293 HTT-AS promoter firefly luciferase reporter (activity 0% = vehicle and -100% = no light), 24 h; series mostly up to 57.5 µM; activity change, positive = activation: at the top concentration
# Summary of the method: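 Firefly luciferase readout (Dual-Glo, 10 min RT) after 24 h, 37 °C compound exposure (final up to 57.5 uM) of HEK293 reporter cells cultured 24 h beforehand; PTC124 at 50 uM final as control inhibitor; activity scaled vehicle 0%, zero RLU -100%.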
row,SMILES,"activity change, positive = activation"
1,Cc1ccc(Cl)cc1N1CCN(CCCNC(=O)Cn2ncc3c([nH]c4ccccc43)c2=O)CC1,inactive: -0.751%
2,Cc1ccc(C)c(NC(=O)CN(C)S(=O)(=O)c2cccc3cccnc23)c1,inactive: -14.7%
3,Cc1ccc(C)c(NC(=O)CSc2nc(-c3ccccc3)c(C#N)c(=O)[nH]2)c1,inactive: -11.8%
4,COC(=O)c1ccccc1NC(=O)C1=CC(c2ccc3c(c2)OCO3)=NS(=O)(=O)N1C,inactive: -3.45%
5,Cc1ccc(CNc2nc3ccc(Cl)cc3n3cnnc23)cc1,inactive: -3.72%
6,COc1ccc(S(=O)(=O)c2c(Nc3c(C)cccc3C)sc(C(=O)c3ccc(F)cc3)c2N)cc1,inactive: -44.1%
7,CCc1cccc(C)c1Nc1c(-c2ccc(SC)cc2)nc2sccn12,inactive: 28.8%
8,O=C(CC1N=C2c3ccccc3N=C(SCc3ccc(F)cc3)N2C1=O)NC1CCCCC1 (configuration not stated),inactive: -49.9%
9,Fc1ccc(-c2noc3ncnc(Nc4ccc(F)cc4F)c23)cc1,inactive: 0%
10,Cc1cccc(NC(=O)Cn2c(=O)n(Cc3ccccc3)c(=O)c3sc4ccccc4c32)c1,inactive: -27.7%
11,CCOc1ccc(N(C(=O)c2ccc(Cl)cc2)S(=O)(=O)c2ccc3c(c2)n(C)c(=O)n3C)cc1,inactive: -14.8%
12,CCOc1ccc(CCNC(=O)c2cccc(Nc3nc4ccccc4nc3-n3nc(C)cc3C)c2)cc1OCC,inactive: 12.7%
13,Cc1ccc(-n2nc3c(N4CCC(C(=O)NC5CCC(C)CC5)CC4)nnc(C)c3c2C)cc1 (configuration not stated),inactive: -12.2%
14,O=C(CCCCCCC(=O)Nc1ccc([C@H]2O[C@@H](CSc3nc(-c4ccccc4)c(-c4ccccc4)o3)C[C@@H](c3ccc(CO)cc3)O2)cc1)NO,inactive: -6.29%
15,CCC(=O)Oc1cc(C(C)(C)C)cc2cc(-c3nc(-c4ccc(OC)cc4OC)no3)c(=O)oc12,inactive: -4.6%
16,CCOc1ccc(N(CC(=O)Nc2cc(OC)cc(OC)c2)S(=O)(=O)c2c(C)[nH]c(=O)[nH]c2=O)cc1,inactive: -6.03%
17,CC1=C(C(N)=O)C(c2cccc(O)c2)n2ncnc2N1 (configuration not stated),inactive: -2.95%
18,O=C(c1cccs1)c1cn(CCOc2ccc(Cl)cc2)c2ccccc12,inactive: -35.3%
19,COc1ccc(Cl)cc1NC(=O)Cn1c(=O)oc2cc(S(=O)(=O)N3CCCCCC3)ccc21,inactive: -21.5%

row,SMILES,"activity change, positive = activation"
1,Cc1ccc2sc(N(Cc3cccnc3)C(=O)Cc3ccccc3)nc2c1C,inactive: -24.2%
2,Cc1ccc(C(=O)c2cn(Cc3ccccc3F)c3cc4c(cc3c2=O)OCCO4)cc1,inactive: 10.5%
3,C[N+](C)(C)CCOC(=O)CCC(=O)OCC[N+](C)(C)C,inactive: -1.54%
4,COc1ccc(OC)c(NC(=O)CSC2=Nc3ccccc3C3=NC(CCC(=O)NCc4ccccc4)C(=O)N23)c1 (configuration not stated),inactive: 6.81%
5,O=C(COc1ccc(Cl)cc1)N(Cc1ccco1)Cc1ccco1,inactive: -34.8%
6,Cc1c(C(=O)N(C)C)sc2c1c(=O)n(-c1ccc(Cl)c(Cl)c1)c(=O)n2CC(=O)C(C)(C)C,inactive: 3.11%
7,COc1ccccc1CNC(=O)CCC(=O)N1CC(C)Sc2ccccc21 (configuration not stated),inactive: -23.9%
8,Cc1cccc(N2CCN(C(=O)CN3C(=O)COc4ccc(S(=O)(=O)N5CCC(C)CC5)cc43)CC2)c1C,inactive: -18.4%
9,O=S(=O)(Nc1cccc(C(F)(F)F)c1)c1ccc(NS(=O)(=O)c2ccc3c(c2)OCCO3)cc1,inactive: -39.7%
10,Cc1ccc(NC(=O)CSc2nc3ccccc3n2CC(=O)N2CCC(C)CC2)cc1C,inactive: -19.6%
11,Cc1csc2nc(COC(=O)c3cccc(NC(=O)c4cccc(Cl)c4)c3)cc(=O)n12,inactive: -15.7%
12,CCc1nn(CC(=O)N2CCC(C)CC2)c(=O)c2cc3occc3n12,inactive: -2.09%
13,CCCN(c1ccc(C(C)C)cc1)S(=O)(=O)c1ccc2c(c1)n(C)c(=O)c(=O)n2C,inactive: -9%
14,CN(C)C1(CNC(=O)COc2ccc([N+](=O)[O-])cc2)CCCCC1,inactive: -12.8%
15,CCC1CN(C(=O)N2CCC(C(=O)NCCc3cc(OC)ccc3OC)CC2)c2ccccc2O1 (configuration not stated),inactive: -28.3%
16,CCN(CC)S(=O)(=O)c1ccc2c(c1)N(CC(=O)N1CCN(c3cccc(Cl)c3)CC1)C(=O)CO2,inactive: -21.5%
17,CCn1c(CN2CCOCC2)nc2cc(NC(=O)c3ccccc3[N+](=O)[O-])ccc21,inactive: 17.9%
18,CC(C)Oc1ccc(CNC(=O)c2ccc(CS(=O)c3cccc(Cl)c3)o2)cc1 (configuration not stated),inactive: -27.9%
19,COc1ccccc1N1CCN(C(=O)Cn2ncc3ccsc3c2=O)CC1,inactive: -4.91%

row,SMILES,"activity change, positive = activation"
1,COc1cccc(-n2cc(C(=O)Nc3cccc(C(F)(F)F)c3)c3ccccc3c2=O)c1,inactive: -29.1%
2,Cc1ccc(NC(=O)N2CCc3cc(S(=O)(=O)N4CCC(C)CC4)ccc32)cc1,inactive: -12.4%
3,CCN(C(=O)Cn1c(=O)n(CCCS(=O)(=O)C2CCCCC2)c(=O)c2ccccc21)c1cccc(C)c1,inactive: -11.4%
4,Cc1ccc(Cl)cc1Nc1nn2c(=O)c3ccc(C(=O)Nc4ccc(F)cc4)cc3nc2s1,inactive: -0.409%
5,Cc1cc(Cl)ccc1NC(=O)Cn1nc(C)c2c(C)n(-c3ccccc3)nc2c1=O,inactive: -23.5%
6,COc1cccc(C2c3c(oc4cc(C)cc(C)c4c3=O)C(=O)N2CCc2ccc(OC)c(OC)c2)c1 (configuration not stated),inactive: -3.76%
7,COc1ccc(NC(=O)CCS(=O)(=O)c2nc(-c3cccs3)cc(C(F)(F)F)n2)cc1,inactive: -56.1%
8,CCn1c(SCc2ccccc2C)nc(=O)c2c(C(=O)OC)cc(C3CC3)nc21,inactive: -36.9%
9,COc1ccccc1CNC(=O)CCC1N=C2c3ccccc3N=C(SCC(=O)Nc3ccc(F)cc3)N2C1=O (configuration not stated),inactive: 4.72%
10,Cc1ccc2c(c1)c1c(c(=O)n(-c3cccc(Cl)c3)c(=O)n1CC(=O)NCCC1=CCCCC1)n2C,inactive: -11.4%
11,CN(CC(=O)NCc1ccc(Cl)cc1)S(=O)(=O)c1ccc2[nH]c3c(c2c1)CCCC3,inactive: -27.6%
12,COc1ccc(CNc2nc(-c3ccccc3)nn2S(=O)(=O)c2ccccc2)cc1,inactive: 25.2%
13,O=C(Nc1nnc(-c2cc(Cl)ccc2Cl)o1)c1ccc2c(c1)OCCO2,inactive: -0.409%
14,CCOC(=O)C1CCC(CN(Cc2ccc(OC)cc2)S(=O)(=O)c2ccc(F)c(C(=O)Nc3ccc(C)c(C)c3)c2)CC1 (configuration not stated),inactive: -7.12%
15,COc1ccc(-n2c(Cc3ccccc3)nnc2SCc2nc(-c3cccs3)no2)cc1,inactive: -24.4%
16,O=c1cc(CSc2ncn[nH]2)[nH]c2ccc(F)cc12,inactive: 2.16%
17,CCN(c1ccccc1)S(=O)(=O)c1cc(Br)cc2c1N(C(=O)C1CC1)CC2,inactive: -36.6%
18,Cc1ccc(C(=O)N2CCc3cc(CNC(=O)CSc4ccccc4)ccc32)cc1,inactive: -24.8%
19,Cc1ccc(-c2cc(C(=O)NCc3cnn(C)c3C)c3ccccc3n2)cc1C,inactive: 22.7%
